Assay results taken from article PMC4336329 (PLoS ONE, 2015).
The whole screen tested about 310,000 compounds, of which about 2,200 (0.71%) showed an effect of 50% or more. The effect is printed as a negative number. The list shows a part of the results.

What follows are compounds tested against human ether-à-go-go-related gene (hERG) potassium channel (human, UniProt Q12809) (assay: primary screen, population patch clamp on CHO cells stably expressing hERG).
Chain of human ether-à-go-go-related gene (hERG) potassium channel (Q12809 whole entry, looked up): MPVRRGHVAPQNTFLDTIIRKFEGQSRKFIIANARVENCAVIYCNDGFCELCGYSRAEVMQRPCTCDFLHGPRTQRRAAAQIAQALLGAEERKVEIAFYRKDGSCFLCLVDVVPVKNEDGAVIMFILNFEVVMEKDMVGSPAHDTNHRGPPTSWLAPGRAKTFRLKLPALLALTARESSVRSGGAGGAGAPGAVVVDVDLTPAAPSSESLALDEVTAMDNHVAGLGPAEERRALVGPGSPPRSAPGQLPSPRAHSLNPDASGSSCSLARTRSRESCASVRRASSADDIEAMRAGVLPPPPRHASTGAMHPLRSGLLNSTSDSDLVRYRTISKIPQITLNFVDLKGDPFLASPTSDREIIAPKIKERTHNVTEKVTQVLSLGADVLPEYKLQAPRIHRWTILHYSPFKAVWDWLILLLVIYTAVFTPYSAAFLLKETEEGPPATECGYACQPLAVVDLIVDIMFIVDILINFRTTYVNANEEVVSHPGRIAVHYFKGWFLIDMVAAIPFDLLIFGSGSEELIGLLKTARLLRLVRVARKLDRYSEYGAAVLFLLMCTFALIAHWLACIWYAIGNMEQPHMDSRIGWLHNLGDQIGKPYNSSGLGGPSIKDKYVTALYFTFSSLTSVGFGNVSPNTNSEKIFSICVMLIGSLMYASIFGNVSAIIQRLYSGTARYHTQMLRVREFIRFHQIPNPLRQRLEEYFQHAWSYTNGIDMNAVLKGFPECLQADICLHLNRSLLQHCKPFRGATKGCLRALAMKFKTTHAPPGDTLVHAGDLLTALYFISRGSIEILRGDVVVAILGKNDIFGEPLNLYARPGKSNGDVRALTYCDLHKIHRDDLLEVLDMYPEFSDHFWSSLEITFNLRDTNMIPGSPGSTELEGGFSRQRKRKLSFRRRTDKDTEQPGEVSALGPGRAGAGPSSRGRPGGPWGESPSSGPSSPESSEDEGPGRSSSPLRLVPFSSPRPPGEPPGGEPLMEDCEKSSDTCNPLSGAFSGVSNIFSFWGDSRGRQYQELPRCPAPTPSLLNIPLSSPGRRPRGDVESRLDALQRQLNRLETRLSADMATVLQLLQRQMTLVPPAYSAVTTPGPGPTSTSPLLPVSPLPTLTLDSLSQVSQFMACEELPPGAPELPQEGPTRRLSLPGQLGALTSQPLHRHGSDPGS

SMILES | hERG current change (%, negative = inhibition) at 1uM [%]
O=C(CSc1nnc(NC(=O)c2ccccc2)s1)NC1CCCC1 | 2.14
CCCCN(C(=O)c1[nH]c(C)c(C(C)=O)c1C)c1c(N)n(CCCC)c(=O)[nH]c1=O | 2.19
CCC(=O)c1c[nH]c(C(=O)NCc2cccs2)c1 | 6.89
CCc1ccc(-c2nc(SCC(=O)N(C)C3CCS(=O)(=O)C3)n[nH]2)cc1 (centres unmarked) | 5.78
CN1CCN(c2ccc(Cl)cc2NC(=O)/C=C/c2ccc(F)cc2)CC1 | -25.7
COc1cccc(-c2nnc(SCc3nc4ccccc4s3)n2C)c1 | -3.5
O=[N+]([O-])c1ccc2nc(-c3ccc(Cl)cc3)n(OCc3ccccc3)c2c1 | 19.2
Cn1cccc1C(=O)NC1CCCCCC1 | 5.97
CC(C)(C)Sc1ccc2nc3c(n2c1)CCCC3.Cl | -0.262
CCCC(=O)c1cc(CP(=O)(OCC)OCC)oc1C | 9.57
O=C(c1ccco1)N1N=C(c2cccs2)CC1c1ccco1 (centres unmarked) | -2.18
CCC(=O)Nc1cccc(Br)c1 | 5.58
Brc1csc(/C=N/Nc2nc3ccccc3s2)c1 | 9.85
Cc1ccc(/C(N)=N/OC(=O)CCC2CCCC2)cc1 | 8.87
COc1ccccc1NC(=O)c1ccc(S(=O)(=O)N2CCOCC2)cc1 | 8.61
O=[N+]([O-])c1ccc(N2CCN(Cc3ccccc3)CC2)s1 | -6.32
Cc1ccc(O)c(NC(=S)NC(=O)c2ccccc2Cl)c1 | 12.3
Cc1cc(C)c(S(=O)(=O)N2CCCOC2CNC(=O)C(=O)NCc2cccs2)c(C)c1 (centres unmarked) | 16.1
COC/C=C/C1=CC2=CC(=O)C(C)(OC(=O)c3cnc4ccccc4n3)C(=O)C2=CN1c1ccccc1 (centres unmarked) | 9.18

SMILES | hERG current change (%, negative = inhibition) at 1uM [%]
Br.CCn1c2c(c(=N)c3c1CCC3)CCCC2 | 4.22
O=C(Nc1ccc(S(=O)(=O)Nc2cnc3ccccc3n2)cc1)c1ccc(Cl)cc1Cl | 6.22
COc1ccc(NC(=O)CSc2c3c(nc4cc(Cl)ccc24)CCCC3)cc1OC | 11.5
O=C(/C=C/c1ccccc1)NC(=S)N1C[C@H]2C[C@H](C1)c1cccc(=O)n1C2 | -4.92
O=C(COc1cccc2cccnc12)NNC(=O)Nc1ccccc1 | 7.1
NC(=O)[C@@H]1CCCN1C(=O)c1ccc2oc(CCc3ccccc3)nc2c1 | 7.92
Cc1c(C(=O)N2CCCC2)c(S(=O)(=O)NCCc2ccccc2)c(C)n1C | 8.05
CCC(=O)N1CCc2cc(S(=O)(=O)CCC(=O)O)ccc21 | 11.4
Cc1ccc(NC(=O)N2CCC(NC(=O)c3ccco3)CC2)cc1 | 14.3
Cc1cc[n+]2n1CC(O)C2.[Cl-] (centres unmarked) | 8.46
Cc1cc(C)c2oc(C(=O)N3CCN(Cc4ccccc4)CC3)cc(=O)c2c1 | 4.72
COc1ccccc1N(C)S(=O)(=O)c1ccc(C(=O)Nc2nc(C)cs2)cc1 | 7.75
CC(OC(=O)CSc1ccc([N+](=O)[O-])cc1)C(=O)NC1CC1 (centres unmarked) | 2.97
O=C(Nc1ccc2ccccc2c1)c1ccc(Br)o1 | 12.9
COC(=O)c1ccccc1NC(=S)NC(NC(=O)COc1ccccc1)C(Cl)(Cl)Cl (centres unmarked) | 8.45
Cc1ccc(NC(=O)Nc2nnc(-c3ccccc3F)s2)cc1 | 13.3
COc1ccc2c(C(=O)c3ccc(Cl)cc3)n(CCCC(N)=O)[n+]([O-])c2c1 | -6.19
CC(=O)Nc1sc(C)c(C)c1C(=O)OCC(=O)Nc1cc(S(=O)(=O)N2CCCCC2)ccc1Cl | 6.72
CCN(CC)C(=O)COc1ccc2c(c1)C(=O)CC(C)(C)O2 | 16.4

SMILES | hERG current change (%, negative = inhibition) at 1uM [%]
Cc1nc(Nc2ccccc2)c2oc3ccc(Cl)cc3c2n1 | 7.43
COc1ccc(N2CCN(C(=O)c3ccc(S(=O)(=O)N4CCOCC4)cc3)CC2)cc1 | 0.972
Cc1cccc(CCNC(=O)c2cc(=O)[nH]c3ccc(Br)cc23)c1 | 1.53
CCOC(=O)C1CCCN(C(=O)COC(=O)c2cc(=O)c3ccccc3o2)C1 (centres unmarked) | 14.7
COc1cccc(C(C(=O)NCC2CCCO2)N(C(=O)Cn2nnc3ccccc32)c2ccc(NC(C)=O)cc2)c1OC (centres unmarked) | 14.2
COc1cccc(N2CCN(C(=O)CC(NC(=O)c3ccccc3)c3ccccc3)CC2)c1 (centres unmarked) | -27
O=C(CCS(=O)(=O)c1ccc2c(c1)NC(=O)CS2)NCc1cccs1 | -22.1
C#CC1(NC(=O)NS(=O)(=O)c2ccc(C)cc2)CCCCC1 | 10.4
CCCC(=O)N1CCCC(C(=O)c2cccc(OC(C)C)c2)C1 (centres unmarked) | 9.81
COC(=O)c1cccc(N2C(=O)c3cccnc3C2=O)c1 | 12
COC(=O)Nc1nnc(CC(=O)Nc2ccccc2C)s1 | -1.45
CN(C(=O)CSc1nnc(-c2ccncc2)n1C)C1CCS(=O)(=O)C1 (centres unmarked) | 7.59
COc1ccc(Cl)cc1NC(=O)CCN1CCN(Cc2ccccc2)CC1 | -13.9
COc1ccc(NC(=O)CSc2nnc(-c3ccncc3)n2C)cc1 | 20.4
Cc1c(CCC(=O)NCCCCCC(=O)O)c(=O)oc2c(C)c3oc4c(c3cc12)CCCC4 | 15.3
Cc1ccc(NC(=O)CN(C)S(=O)(=O)c2cccs2)cc1C | 8.82
O=C(c1ccc2c(=O)n3c(nc2c1)CCCCC3)N1CCN(c2cccc(Cl)c2)CC1 | -2.75
O=C(C/C=N\OCc1ccc([N+](=O)[O-])cc1)Nc1ccc(F)cc1F | 5.23
